Laboratory results taken from PMC6919601, “Identification of Plasmodium dipeptidyl aminopeptidase allosteric inhibitors by high throughput screening” (PLoS ONE, 2019).
The campaign covered roughly 110,000 compounds. About 230 (0.21%) showed an effect of 50% or more. The list shows a part of the results.

The compounds below were run against DPAP1 (Plasmodium falciparum, UniProt Q8IIJ9) (assay: primary screen, percent inhibition; read by cleavage of a fluorogenic dipeptide substrate; higher = more effect of the substance).
Design: species or system P. falciparum D10 trophozoite lysates; single well
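Also: 30 min substrate incubation versus DMSO and 10 µM JCP410 controls.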

Chain of DPAP1 (Q8IIJ9 whole entry, looked up): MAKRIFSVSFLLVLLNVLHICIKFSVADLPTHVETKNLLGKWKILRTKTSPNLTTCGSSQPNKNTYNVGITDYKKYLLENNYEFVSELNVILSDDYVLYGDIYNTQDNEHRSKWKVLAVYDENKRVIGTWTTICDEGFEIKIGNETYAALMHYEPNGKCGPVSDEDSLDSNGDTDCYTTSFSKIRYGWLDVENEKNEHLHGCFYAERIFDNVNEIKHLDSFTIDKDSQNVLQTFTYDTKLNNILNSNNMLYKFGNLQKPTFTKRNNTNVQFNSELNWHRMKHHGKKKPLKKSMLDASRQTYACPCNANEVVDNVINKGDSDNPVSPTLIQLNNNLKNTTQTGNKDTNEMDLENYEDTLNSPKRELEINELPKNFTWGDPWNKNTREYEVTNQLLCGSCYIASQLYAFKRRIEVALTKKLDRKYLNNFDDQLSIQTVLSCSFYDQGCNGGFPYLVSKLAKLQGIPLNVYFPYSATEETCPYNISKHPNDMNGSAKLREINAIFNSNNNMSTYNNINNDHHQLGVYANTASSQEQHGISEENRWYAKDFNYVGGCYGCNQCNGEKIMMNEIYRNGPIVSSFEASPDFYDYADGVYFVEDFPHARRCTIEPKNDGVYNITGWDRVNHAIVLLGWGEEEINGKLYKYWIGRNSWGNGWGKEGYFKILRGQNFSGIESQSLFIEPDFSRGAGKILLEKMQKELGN

| SMILES | % Inhibition @ 10 uM [%] |
| --- | --- |
| Cc1ccccc1CS(=O)(=O)Cc1ccc(C(=O)Nc2noc3ccccc23)o1 | 0.569 |
| COc1cccc(Cn2cc(C(=O)c3ccc(C)cc3)c(=O)c3ccc(C)nc32)c1 | 9.54 |
| CC(=O)c1cccc(N2Cc3ccccc3C2)c1 | 2 |
| Cc1[nH]c2ccccc2c1/C=N/NC(N)=S | 3.39 |
| CN1CCC(NCCC2CCCN2C)CC1 (stereo not shown) | -4.04 |
| Cc1cccc(OCCSc2nc3ccccc3n2CCC(=O)O)c1 | 16.9 |
| C=CCOc1ccc(CNc2ccc(N3CCCC3)cc2)cc1OC | 0.408 |
| COc1ccc(N2C(=O)CCC(C(C)=O)=C2C)cc1 | -1.69 |
| CCOc1ccc(-c2cn(-c3ccc(OC)cc3)c(SCC(=O)Nc3nccs3)n2)cc1 | 6.5 |
| N=C(NC(=O)c1ccc(Cl)c(Cl)c1)Nc1nc(=O)c2ccccc2s1 | -2.87 |
| COc1cc(C)c(CN2CCCC(C)C2)cc1C (stereo not shown) | -4.14 |
| CC(C)(C)c1ccc(C(=O)O/N=C(\N)c2ccc(Br)cc2)cc1 | 0.484 |
| CC(C)CN1C(=O)c2ccccc2C(C(=O)NCc2ccco2)C1c1cccs1 (stereo not shown) | 1.69 |
| Cc1nc2c(-c3ccccc3)c(C)nn2c(C)c1CC(=O)NCC1CCCO1 (stereo not shown) | -4.24 |
| CCOc1ccc(N2CC(C(=O)NC3=NCCS3)CC2=O)cc1 (stereo not shown) | -3.53 |
| COc1ccc(NC(=O)c2ccc(Cl)cc2)c2ncccc12 | 3.7 |
| CN(C)c1ccc(/C=C2\C(=O)N(c3ccc([N+](=O)[O-])cc3)N=C2c2ccccc2)cc1 | 4.22 |
| O=C(CSc1nccc(O)n1)n1c2c(c3ccccc31)CCCC2 | 3.66 |
| O=C1COC(c2ccccc2)C2CCCCN12 (stereo not shown) | -2.76 |
| Cc1ccccc1C(=O)Nc1sc2c(c1C(N)=O)CCC(C)C2 (stereo not shown) | -9.66 |
| COC(=O)C1=CN(C)C=C(C(=O)OC)C1c1ccc(O)c(OC)c1 | -1.48 |
| COc1cc(SC)ccc1C(=O)NCc1ccc2[nH]c3c(c2c1)CCCC3 | 2.6 |

| SMILES | % Inhibition @ 10 uM [%] |
| --- | --- |
| C=CCOc1ccc(CC(NC(=O)OCc2ccccc2)C(=O)NCC#N)cc1 (stereo not shown) | -6.98 |
| Cn1c(=O)n(Cc2ccccc2Cl)c2ccccc21 | 10.2 |
| O=C(Nc1ccc(Sc2ccc(NC(=O)C(F)(F)F)cc2)cc1)C(F)(F)F | 3.69 |
| Cn1c(=O)c2c(nc3n(CCc4ccccc4)c(C45CC6CC(CC(C6)C4)C5)cn23)n(C)c1=O | 0.503 |
| CCOc1ccc(OCc2cccc(C(=O)N3CCCC3)c2)cc1 | 8.19 |
| C=CCn1c(SCC(=C)C)nc2c1c(=O)n(C)c(=O)n2C | 0.674 |
| Cc1cc(C)n2nc3nc(N4CCCCC4)nc(-c4ccccc4)c3c2n1 | 6.01 |
| CCn1c2ccccc2c2cc(CN(C)C3CCCCC3)ccc21 | 4.9 |
| Cc1cc(OCC(=O)NCc2nc3ccccc3[nH]2)cc(C)c1Cl | 5.7 |
| CC(C)C(=O)N1CCN(c2ccc(NC(=O)c3ccc(Br)o3)cc2Cl)CC1 | 1.63 |
| O=C(NCc1noc2ccccc12)N(Cc1ccco1)C1CCCC1 | -1.39 |
| O=C(O)c1cccc([N+](=O)[O-])c1C(=O)Nc1ccc(O)cc1 | -6.83 |
| Cc1cccc(C2Oc3ccccc3C3CC(c4cccs4)=NN32)c1O (stereo not shown) | 7.56 |
| CCN1CCC(C#N)(NC(=O)[C@H](Cc2c(F)cc(OC)cc2F)NC(=O)c2ccc(-c3ccccc3Cl)cc2)CC1 | -3.14 |
| COc1cc(C(=O)N(CCc2ccccc2)C2=CC3CCC(C2)N3C)cc(OC)c1OC (stereo not shown) | 3.01 |
| Cc1ccnc(NC(=O)CCc2nnc3ccc(N4CCC(C)CC4)nn23)c1 | 1.39 |
| COc1ccc(C(=O)/C=C2\C(=O)Nc3ccccc32)cc1 | -2.51 |
| CCOC(=O)c1cccc(-c2ccc(/C=C3/C(=N)N4OC(C)=CC4=NC3=O)o2)c1 | 3.63 |
| COc1ccc(-c2nn(C)c(=O)c3ccccc23)cc1CNC(=O)C1CCCCC1 | 2.1 |
| c1ccc2c(c1)N1CCCN=C1N2CCN1CCCCC1 | -4.04 |
| CCOc1ccc(-c2cc(C(=O)NCC3COc4ccccc4O3)c3ccccc3n2)cc1 (stereo not shown) | -2.26 |
| COCCCNC(=O)CSc1[nH]c(-c2ccc(OC)cc2)nc1-c1ccc(F)cc1 | 6.59 |

| SMILES | % Inhibition @ 10 uM [%] |
| --- | --- |
| N#C/C(=C\c1ccc(Br)cc1)c1nc(-c2ccc(Cl)c(Cl)c2)cs1 | 1.41 |
| O=C(NCc1cccnc1)C1c2ccccc2C(=O)N1CCc1ccc(Cl)cc1 (stereo not shown) | 4.07 |
| Cn1c(NCc2cc(Cl)cc(Cl)c2O)nc2ccccc21 | -8.7 |
| CC(C)CCNc1ncnc2c1cnn2C | -1.97 |
| CC(=O)Nc1ccc(S(=O)(=O)N2CCN(S(=O)(=O)c3ccc(C)cc3)CC2)cc1 | 6.17 |
| CCOC(=O)N1CCN(C(=O)C2=CCN(S(=O)(=O)c3ccc(Br)cc3)CC2)CC1 | 5.09 |
| OC(COCCC12CC3CC(CC(C3)C1)C2)CN1CCOCC1 (stereo not shown) | -0.239 |
| O=[N+]([O-])c1ccc2nc(O)c(/C=C(\O)c3ccc(F)cc3)nc2c1 | -5.44 |
| COCc1noc2c1C(c1ccc(F)cc1)C(C#N)=C(N)N2 (stereo not shown) | -2.16 |
| CCS(=O)(=O)c1oc(-c2cccs2)nc1S(=O)(=O)c1ccccc1 | 5.29 |
| C=CCn1c(SCc2cccc(C)c2)nc2c1c(=O)n(C)c(=O)n2C | 2.46 |
| COc1cccc(C(=O)c2cc3ccc(OC)cc3o2)c1 | -1.64 |
| Cc1oc2ccc(O)c(CN3CCN(C)CC3)c2c1C(=O)OCC(C)C | -6.72 |
| O=C(NCCc1ccccc1)c1nc2ncccn2n1 | -5.41 |
| O=C(Cn1cc(C(=O)c2ccco2)c2ccccc21)NCCc1c[nH]c2ccccc12 | -1.72 |
| OCCCc1nc2ccccc2n1Cc1c(F)cccc1Cl | -8.08 |
| COc1cc(NC(=O)c2ccc([N+](=O)[O-])cc2)cc(OC)c1 | 3.34 |
| Nn1cnn2c(SCC(=O)Nc3cccnc3Cl)nnc12 | -8.17 |
| Cc1nc2ccccc2n1S(=O)(=O)c1cc(Cl)ccc1Cl | -2.34 |
| COc1ccc(C2(CNC(=O)C(=O)NC3CCCCC3)CCCC2)cc1OC | -1.71 |
